T1: mouse cKIT (Mus musculus, UniProt P05532)
T1 construct: 3.125-50 nM of cKIT receptor extracellular domains (ECD) were diluted in a 2-fold series; purchased Sino Biological Inc 50530-M08H
T1 sequence (P05532 25-527 limits assumed): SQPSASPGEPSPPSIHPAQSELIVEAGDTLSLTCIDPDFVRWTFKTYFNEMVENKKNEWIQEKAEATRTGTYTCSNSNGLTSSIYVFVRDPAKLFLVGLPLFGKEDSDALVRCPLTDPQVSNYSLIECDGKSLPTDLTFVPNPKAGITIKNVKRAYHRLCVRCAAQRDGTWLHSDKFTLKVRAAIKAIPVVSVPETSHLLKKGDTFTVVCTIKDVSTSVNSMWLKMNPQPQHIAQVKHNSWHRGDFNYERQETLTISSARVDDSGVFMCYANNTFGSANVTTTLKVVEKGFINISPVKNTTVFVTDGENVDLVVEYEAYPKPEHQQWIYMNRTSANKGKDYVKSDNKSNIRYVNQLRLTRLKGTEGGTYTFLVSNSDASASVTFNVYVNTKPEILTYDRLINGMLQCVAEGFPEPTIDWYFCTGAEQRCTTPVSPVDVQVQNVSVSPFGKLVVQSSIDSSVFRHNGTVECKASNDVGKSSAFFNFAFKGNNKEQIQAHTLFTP

B1: Anti-cKIT Ab4 (antibody)
heavy: QVQLQQSGPGLVKPSQTLSLTCAISGDSVSTNSAAWNWIRQSPSRGLEWLGRIYYRSQWLNDYAVSVKSRITINPDTSKNQFSLQLNSVTPEDTAVYYCARQLTYPYTVYHKALDVWGQGTLVTVSSASTKGPSVFPLAPSSKSTSGGTAALGCLVKDYFPEPVTVSWNSGALTSGVHTFPAVLQSSGLYSLSSVVTVPSSSLGTQTYICNVNHKPSNTKVDKRV[human IgG1 Fc left out]
light: DIELTQPPSVSVSPGQTASITCSGDNLGDQYVSWYQQKPGQAPVLVIYDDTDRPSGIPERFSGSNSGNTATLTISGTQAEDEADYYCQSTDSKSVVFGGGTKLTVLGQPKAAPSVTLFPPSSEELQANKATLVCLISDFYPGAVTVAWKADSSPVKAGVETTTPSKQSNNKYAASSYLSLTPEQWKSHRSYSCQVTHEGSTVEKTVAPTECS
B2: Anti-cKIT Ab5 (antibody)
heavy: QVQLVQSGAEVKKPGESLKISCKGSGYSFTNYWIAWVRQMPGKGLEWMGIIYPSNSYTLYSPSFQGQVTISADKSISTAYLQWSSLKASDTAMYYCARVPPGGSISYPAFDHWGQGTLVTVSSASTKGPSVFPLAPSSKSTSGGTAALGCLVKDYFPEPVTVSWNSGALTSGVHTFPAVLQSSGLYSLSSVVTVPSSSLGTQTYICNVNHKPSNTKVDKRV[human IgG1 Fc left out]
light: DIELTQPPSVSVSPGQTASITCSGDNIGSIYASWYQQKPGQAPVLVIYRDNKRPSGIPERFSGSNSGNTATLTISGTQAEDEADYYCSVTDMEQHSVFGGGTKLTVLGQPKAAPSVTLFPPSSEELQANKATLVCLISDFYPGAVTVAWKADSSPVKAGVETTTPSKQSNNKYAASSYLSLTPEQWKSHRSYSCQVTHEGSTVEKTVAPTECS

Tests used:
rat cKIT = assay: Cross reactivity of cKIT antibodies to rat cKIT; type: binding
Experimental: (§1) Affinity of the antibodies to cKIT species orthologues and also to human cKIT was determined using SPR technology using a Biacore® 2000 instrument (GE Healthcare, Pittsburgh, Pa.) and with CM5 sensor chips. Briefly, HBS-P (0.01 M HEPES, pH 7.4, 0.15 M NaCl, 0.005% Surfactant P20) supplemented with 2% Odyssey® blocking buffer (Li-Cor Biosciences, Lincoln, Nebr.) was used as the running buffer for all the experiments. The immobilization level and analyte interactions were measured by response unit (RU). Pilot experiments were performed to test and confirm the feasibility of the immobilization of the anti-human Fc antibody (Catalog number BR100839, GE Healthcare, Pittsburgh, Pa.) and the capture of the test antibodies. For kinetic measurements, the experiments were performed in which the antibodies were captured to the sensor chip surface via the immobilized anti-human Fc antibody and the ability of the cKIT proteins to bind in free solution was determined. Briefly, 25 μg/ml of anti-human Fc antibody at pH 5 was immobilized on a CM5 sensor chip through amine coupling at flow rate of 5 μl/min on both flow cells to reach 10,500 RUs. 0.1-1 μg/ml of test antibodies were then injected at 10 μl/min for 1 minute. Captured levels of the antibodies were generally kept below 200 RUs. […]

mouse cKIT = target: T1, mouse cKIT; assay: Cross reactivity of cKIT antibodies to mouse cKIT; type: binding
Experimental: as §1

Molecule | Reactivity to rat cKIT (rat cKIT) | Reactivity to mouse cKIT (mouse cKIT)
B1 | Yes | Yes
B2 | Yes | Yes

Source: patent US11357864B2, “Antibody drug conjugates for ablating hematopoietic stem cells” (priority 2016, dated 2022)
